The record followed here is paper PMC4336329 (PLoS ONE, 2015).

The campaign covered roughly 310,000 compounds. About 14,000 (4.5%) showed an effect of 50% or more. Effects have a minus sign here. Some of the results follow.
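Further: peak tail current of the secondary pulse compared with the same well before compound.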

human ether-à-go-go-related gene (hERG) potassium channel, sequence (Q12809 whole entry, looked up): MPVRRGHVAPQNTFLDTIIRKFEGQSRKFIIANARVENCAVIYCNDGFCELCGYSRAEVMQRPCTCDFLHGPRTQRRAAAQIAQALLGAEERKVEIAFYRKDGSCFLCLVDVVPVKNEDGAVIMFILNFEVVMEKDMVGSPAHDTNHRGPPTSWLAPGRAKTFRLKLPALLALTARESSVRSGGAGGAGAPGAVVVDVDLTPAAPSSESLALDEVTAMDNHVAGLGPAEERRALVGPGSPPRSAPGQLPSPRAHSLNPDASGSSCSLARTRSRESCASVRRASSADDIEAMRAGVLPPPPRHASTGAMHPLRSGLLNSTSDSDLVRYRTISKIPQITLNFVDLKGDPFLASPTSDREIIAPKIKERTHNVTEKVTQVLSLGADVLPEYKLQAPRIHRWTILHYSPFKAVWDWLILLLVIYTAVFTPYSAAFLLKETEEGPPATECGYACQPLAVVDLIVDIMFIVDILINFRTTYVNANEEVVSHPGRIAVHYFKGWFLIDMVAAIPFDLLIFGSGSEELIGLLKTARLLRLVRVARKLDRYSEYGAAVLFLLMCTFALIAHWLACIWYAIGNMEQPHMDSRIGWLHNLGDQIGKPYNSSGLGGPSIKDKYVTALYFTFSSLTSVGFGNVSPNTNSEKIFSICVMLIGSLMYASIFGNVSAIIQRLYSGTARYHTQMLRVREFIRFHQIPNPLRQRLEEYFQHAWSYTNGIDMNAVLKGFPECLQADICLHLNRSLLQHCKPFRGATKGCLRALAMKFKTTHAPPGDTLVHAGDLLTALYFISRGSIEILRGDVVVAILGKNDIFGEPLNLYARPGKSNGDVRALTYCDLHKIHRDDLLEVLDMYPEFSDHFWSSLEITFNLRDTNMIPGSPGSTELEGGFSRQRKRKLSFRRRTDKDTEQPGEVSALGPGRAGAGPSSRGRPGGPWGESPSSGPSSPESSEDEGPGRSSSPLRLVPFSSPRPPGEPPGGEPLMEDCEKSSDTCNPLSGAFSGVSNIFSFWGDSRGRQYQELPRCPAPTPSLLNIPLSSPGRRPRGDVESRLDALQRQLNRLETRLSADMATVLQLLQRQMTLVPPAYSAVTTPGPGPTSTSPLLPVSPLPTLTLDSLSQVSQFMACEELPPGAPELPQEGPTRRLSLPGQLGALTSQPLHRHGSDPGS

The assay addresses human ether-à-go-go-related gene (hERG) potassium channel (human, UniProt Q12809). The assay is described as follows: primary screen, population patch clamp on CHO cells stably expressing hERG.
With `COc1ccc(CNC(=O)C2CCN(S(=O)(=O)N3CCOCC3)CC2)cc1`, the “hERG current change (%, negative = inhibition) at 10uM” value is -2.97%.
For `O=C1CC2(CCN(C(=O)C3CC(=O)N(c4ccccc4)C3)CC2)Oc2ccccc21` (centres unmarked) the value was -77.4%.
For `O=C(CSc1nnc(CNC(=O)c2c(F)cccc2F)o1)Nc1ccc2c(c1)OCCO2` the value was 7.93%; for `CCN(CC(=O)Nc1cccc(C(C)=O)c1)S(=O)(=O)c1ccc(OC)cc1`, -7.44%; for `CCCSc1nsc(SCCC)c1C#N`, 11.9%.
Next, `N#C/C(C(=O)NCc1ccco1)=C1/SC(Cc2ccc(F)cc2)C(=O)N1c1ccccc1` (centres unmarked): 1.82%; `Cc1ccc(SCc2c(C(=O)N/N=C/c3ccccc3)nnn2-c2nonc2N)cc1`: -1.47%.
As for `CCOc1ccc(S(=O)(=O)N(C)c2ccc(OCC(=O)N3CCOCC3)cc2)cc1`, the “hERG current change (%, negative = inhibition) at 10uM” value is given as -19.2%.
Next, `O=C(N/N=C/c1ccc(Cl)c([N+](=O)[O-])c1)c1cnccn1`: -41%; `NC(=O)c1ccsc1NC(=O)COC(=O)Cc1ccsc1`: -16.9%; `CCN(CC)S(=O)(=O)c1ccc(N2CCOCC2)c(NC(=O)c2ccccc2)c1`: -25.6%.
For `Cc1ccccc1-c1nc(CN2CCC(C(=O)NCCCN3CCCC(C)C3)CC2)c(C)o1` (centres unmarked) the value was 28.6%.
Take `COc1cc(/C=N/NC(=S)Nc2cccc(S(=O)(=O)N(C)C)c2)ccc1O`: the “hERG current change (%, negative = inhibition) at 10uM” value is -9.56%.
Take `O=C(CSc1nnc(CNC(=O)c2ccco2)o1)Nc1cccc(Cl)c1`: the “hERG current change (%, negative = inhibition) at 10uM” value was -23.9%.
For `Cc1cccc(NC(=S)NC2CC3CCCC(C2)N3Cc2ccccc2)c1C` (centres unmarked) the value was -10.4%.
Next, `O=c1[nH]c(=O)n(-c2ccccc2)c(O)c1N=Nc1ccc(Br)cc1`: -9.32%; `COC(=O)C1=C(c2ccc(S(C)(=O)=O)cc2)C[C@@H]2CC[C@H]1N2C(=O)N1CCC(C)CC1`: -10.8%; `Cc1ccc(CNS(=O)(=O)c2ccc(C(F)(F)F)cc2)n1C`: -0.938%.
For `C=CCn1c(SC)nnc1-c1ccc2ncccc2c1` the value was 3.82%; for `CN1CCC(=NNC(=O)COc2ccc(Cl)cc2)CC1`, 17.4%; for `Cc1ccc(CS(=O)(=O)Cc2ccc(C(=O)NCCCN3CCOCC3)o2)cc1`, 6.75%.
As for `O=C(CN1CCC(c2nc3ccccc3s2)CC1)NCc1cccs1`, the “hERG current change (%, negative = inhibition) at 10uM” value is reported as -37.2%.
Next, `Oc1sc(C=Nc2ccccc2)c2ccccc12`: 7.99%.
For `N#Cc1nc(-c2cccc3ccccc23)oc1NCC1CCCO1` (centres unmarked) the value was 11.4%; for `COc1ccc(Cl)cc1NC(=O)c1nnn(CC(=O)Nc2ccc3c(c2)OCO3)c1N`, 23.7%; for `Cc1ccc(NC(=O)C2CC(=O)N(c3ccc4c(c3)OCCO4)C2)cc1S(=O)(=O)N(C)C` (centres unmarked), -8.57%.
Next, `CCC1(CC)Cc2ccccc2C(N)=C1C#N`: -15.2%.
In the case of `Cc1nn(CCc2n[nH]c(=S)n2C)c(C)c1Br`, the “hERG current change (%, negative = inhibition) at 10uM” value is given as 5.63%.
`O=C(c1cccc(N2C(=O)C3C4C=CC(C4)C3C2=O)c1)N1CCCc2ccccc21` (centres unmarked): the “hERG current change (%, negative = inhibition) at 10uM” value is listed as -22.9%.
For `Cc1nn(-c2ccccc2)c(=O)c2noc(C)c12` the value was 4.71%.
Next, `O=C(CCCSc1nc2ccccc2[nH]1)NCc1ccco1`: 0.369%; `COc1ccc(NC(=O)CN(C)C2CCCCC2)cc1Cl`: -55%.
Take `Cc1cccc2cc(CN(CC3CCCO3)S(=O)(=O)c3ccccc3)c(=O)[nH]c12` (centres unmarked): the “hERG current change (%, negative = inhibition) at 10uM” value was -21.6%.
On to `COC(=O)c1cccc(NS(=O)(=O)c2ccc(OC)c(OC)c2)c1C`, for which the “hERG current change (%, negative = inhibition) at 10uM” value is -12.3%.
Next, `CC1(C)CCC(C)(C)NC(=S)N1`: 21.2%.
For `CCc1ccccc1NC(=O)CNC(=O)c1n[nH]c(=O)c2ccccc12` the value was 8.75%.
Next, `C/C(=N\N=C1\NC(=O)CS1)c1cccs1`: 21.6%; `O=C(Nc1ccc2c(c1)OCO2)c1c(Cl)nc2sccn12`: 3.72%.
Regarding `CCOC(=O)N1CCN(C(=O)c2cn(C)c3ccc(S(=O)(=O)N(C)C4CCCCC4)cc3c2=O)CC1`, the “hERG current change (%, negative = inhibition) at 10uM” value is on record as -29.4%.
Regarding `COc1cc2c(cc1OC)C(C)N(CCN1C(=O)c3ccccc3C1=O)CC2` (centres unmarked), the “hERG current change (%, negative = inhibition) at 10uM” value is listed as 17.5%.
For `O=[N+]([O-])c1ccccc1/C=N\N1CCN(c2ccccc2)CC1` the value was 7.53%; for `COCCNC(=O)C(=O)c1c(-c2ccccc2)[nH]c2ccccc12`, 1.69%; for `Cn1c(O)c(N=NC(=O)C2COc3ccccc3O2)c2ccccc21` (centres unmarked), -18.6%.
For `O=C(CSc1nc(C2CC2)nc2sc3c(c12)CCCC3)NCc1ccco1` the value was -6.99%.
